This assay concerns the target m266. Description: SPR.

Chain of m266 (P05067 672-699): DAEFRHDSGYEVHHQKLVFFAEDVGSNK

B1: Aβ_([…]) peptide (peptide)
peptide: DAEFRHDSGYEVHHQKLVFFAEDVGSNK
Turning to B1, the affinity, expressed as Kd, was 0.84 nM and the koff was determined as 0.00012 s⁻¹.

The record behind these values is article PMC5913127 (2018).
